Data on 167 variants can be found in the RNAGym collection of RNA variant scans (doi:10.1101/gad.245936.114).

B1: tRNA (parent)
chain: CUCUCGGUAGCCAAGUUGGUUUAAGGCGCAAGACUUUAAUUUAUCACUACGAAAUCUUGAGAUCGGGCGUUCGACUCGCCCCCGGGAGAUUUUUUCCUCGAGCAA

Variants at the background level are over-represented here.

Variants of B1 are the subject of the data set. Briefly: nonsense suppression (GFP-seq) (ratio to wild type); higher = more function; SUP4oc tRNA, yeast GFP reporter sort-seq. Summed up:
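Sorted GFP/RFP bins of yeast were each Illumina-sequenced with a phred ≥30 cutoff; the cells held a genome-integrated ochre-suppressor tRNA variant from a library with ~3% random mutations, a galactose-driven GFP ochre reporter, and RFP. Culture was in raffinose/galactose medium containing 80 mg/L adenine. Nonsense suppression, termed GFPSEQ, is the median GFP/RFP of the bins weighted by each variant's estimated cell share per bin, relative to the unmutated parent tRNA, for variants reaching ≥100 reads and ≥30 cells.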
On to U4G G19A A62U, for which the nonsense suppression is at most 0.026.
Next, C1A U21C G73A: at most 0.026; A30C G88A: at most 0.026.
Next, C11U A33G A74C C83A: at most 0.026; C5U A33U: at most 0.026.
Regarding C64G G85C, the nonsense suppression is at most 0.026.
The figure for G59A C64G is at most 0.026.
C75A C77U: the nonsense suppression was at most 0.026.
The figure for U4G G15C U17C is at most 0.026.
The figure for A30C A87G is at most 0.026; for U16G G59A it is at most 0.026; for C11U A14U A30G it is at most 0.026.
Consider A31G G67C, for which the nonsense suppression is at most 0.026.
Turning to G69C C72A, the nonsense suppression is at most 0.026.
Next, A23G U35A U57C: at most 0.026.
Consider U57G U71G, for which the nonsense suppression is at most 0.026.
The figure for C1U G19U U20G U76A G86U is at most 0.026.
Turning to C5A G88A, the nonsense suppression was at most 0.026.
Regarding U2G G85U, the nonsense suppression was 0.0411.
The figure for C3G A62U G78A is at most 0.026; for G28A C34U G69C U76C G84C it is at most 0.026.
Next, A9C C56U C79G C81A: at most 0.026.
Next, G7U G19C U57G A62U: at most 0.026; A9U G19C G65C A74C: at most 0.026.
G61A G73A: the nonsense suppression was 0.202.
As for C1U U20G A31G C81G, the nonsense suppression was at most 0.026.
Turning to C27U A33G, the nonsense suppression is at most 0.026.
As to C34U U71G, the nonsense suppression was at most 0.026.
Turning to A14C C56A G78A, the nonsense suppression is at most 0.026.
As to A13U U17A G78C, the nonsense suppression was at most 0.026.
As to C64G C75G, the nonsense suppression is at most 0.026.
Next, C64G C75A: at most 0.026.
Turning to A9C U57C, the nonsense suppression was at most 0.026.
The figure for C1G A31U U76C is at most 0.026; for A13U A54U U58A G61U it is at most 0.026.
As for G15A G26U, the nonsense suppression was at most 0.026.
Take G6A U21G A54C U71A: the nonsense suppression was at most 0.026.
For the variant C3U C5U G10U G65A G88U, the nonsense suppression was at most 0.026.
The figure for C3U C12G U17C G26U U35G is at most 0.026; for C5G C11A U16A A60C A62G G69C it is at most 0.026.
The figure for G6U U17A U63C is at most 0.026.
As to U57G G73C, the nonsense suppression is at most 0.026.
Next, U21A A31G: 1.16; A23G G65C G66U: at most 0.026.
Turning to U21G A23U A30C C77A G78U C83U, the nonsense suppression was at most 0.026.
The figure for G67U A74G is at most 0.026.
As for A9U A60U U71A, the nonsense suppression was at most 0.026.
A24U G28A U55C: the nonsense suppression was at most 0.026.
Take U21A U76C: the nonsense suppression turned out to be 1.18.
The figure for G10C A24G G25C A33G is at most 0.026; for C29G A30G it is at most 0.026; for U8A C80A it is at most 0.026.
Next, C11G G69A G78U: at most 0.026.
Next, A31U C34G: at most 0.026; G15A U22C: 0.147.
Take G10A C11G G32A U35G: the nonsense suppression is at most 0.026.
G10U C11G A23G C83A: the nonsense suppression is at most 0.026.
The figure for G7A G67U G85A is at most 0.026; for A14U G67A it is at most 0.026.
Consider A14U U70A, for which the nonsense suppression is at most 0.026.
The figure for C77G G84C is at most 0.026; for G26C A60G it is at most 0.026; for G10C A60U C64G it is at most 0.026.
Next, A31G A74C: at most 0.026; C34G G69U U71A A74C: at most 0.026; G26U U55C: at most 0.026.
On to A30C U70A, for which the nonsense suppression was at most 0.026.
Next, U63A U71A G84U A89U: at most 0.026.
For G18U C77U C81U, the nonsense suppression is at most 0.026.
Next, U76G G85C: at most 0.026; A13C U58A G61C: at most 0.026; U21A U57A U58C: at most 0.026.
Next, C5U G61A C64G G85C: at most 0.026; G25C A30G A33U: at most 0.026.
Next, U4A A87C: at most 0.026; U55A G59U U70C: at most 0.026.
Take U20G A33U U70C: the nonsense suppression was at most 0.026.
The figure for U2G G59U A89G is at most 0.026; for G86C A87U it is at most 0.026; for U20A A60G A89G it is at most 0.026.
The figure for C12U G85C is 0.111; for G69U G88C it is at most 0.026; for U4G C29U C56G C77G it is at most 0.026.
Turning to A9G G19C G69U, the nonsense suppression was at most 0.026.
As to U4C A54U G88U, the nonsense suppression is at most 0.026.
The figure for G7U A13U G19A G66U is at most 0.026.
Next, C5A A30U C68A: at most 0.026; G10A U16G A54C: at most 0.026.
The figure for U2C A24U is at most 0.026.
U16A A24G U55G A74G G84A: the nonsense suppression was at most 0.026.
As to G26C G28A C29U, the nonsense suppression is at most 0.026.
As to A23C A89C, the nonsense suppression is at most 0.026.
In the case of U2G A14G U17A G73A, the nonsense suppression was at most 0.026.
Turning to G7C C77U G78A, the nonsense suppression was at most 0.026.
As to G32A G65C, the nonsense suppression is at most 0.026.
The figure for A30U G69U G88C is at most 0.026; for G65U G78A it is at most 0.026; for U63A G67U G78C it is at most 0.026.
With C12U C64U, the nonsense suppression was at most 0.026.
Regarding C3G C77G, the nonsense suppression was at most 0.026.
For the variant U55C U70C C79G, the nonsense suppression is at most 0.026.
On to U2C A33C G85U, for which the nonsense suppression is at most 0.026.
Next, C5U U21G U35C C56A C80A: at most 0.026.
Next, C3U A14U A30G G59A C79G: at most 0.026; C11A U55C A62C U76C: at most 0.026; U16G U70A C82A: at most 0.026.
The figure for A60C C81A is at most 0.026; for U17C A62C it is 0.734; for U4G G7A C34G A60G it is at most 0.026.
As for C56G U71C C80U, the nonsense suppression was at most 0.026.
Take G6U U57G G67U C72U: the nonsense suppression was at most 0.026.
For the variant C5G C79U, the nonsense suppression is at most 0.026.
For the variant A14G U20G G61C C82G, the nonsense suppression is at most 0.026.
Regarding U20A U58A U63A, the nonsense suppression was at most 0.026.
Take G26A C56G U76G: the nonsense suppression was at most 0.026.
As for C11U G32U G69A C82G G84A G88A, the nonsense suppression is at most 0.026.
Take G10U C27U A60U G78A: the nonsense suppression was at most 0.026.
Next, C27G G73A A74U: at most 0.026; G7U U21A C29G A54C G65C: at most 0.026; G6A G19U C56U G61U A74U: at most 0.026.
Turning to A31C C56G, the nonsense suppression was at most 0.026.
As to C11U U35G G67U, the nonsense suppression was at most 0.026.
Regarding A54U G61A, the nonsense suppression turned out to be 0.611.
Consider G26A U70C C72G U76A C81G, for which the nonsense suppression was at most 0.026.
The figure for U2G G32C A54U G78A is at most 0.026; for G19U G25C G78C it is at most 0.026; for U2A A9U C72G it is at most 0.026.
The figure for G15U C27U is at most 0.026; for U17C G32C C72G it is at most 0.026; for G61C U71C G86C it is at most 0.026.
The figure for U4C G19A A54U is at most 0.026; for U8A A62C G65A it is at most 0.026; for U8G A31G it is at most 0.026.
U2C C3U C29G: the nonsense suppression was at most 0.026.
The figure for A54U C82G C83U is at most 0.026; for A13U U71C it is at most 0.026.
Next, U17A A60C: 0.19; A13C U20G C80G: at most 0.026.
The figure for A14G C34U U63C G78C C79A is at most 0.026.
Consider A24U C29A C79U, for which the nonsense suppression is at most 0.026.
As for U16A U70G, the nonsense suppression is at most 0.026.
Next, G10U G18U C56G: at most 0.026; C34A U55A C80A: at most 0.026; C56A G65C C81A: at most 0.026.
Next, C3U A30G: at most 0.026; C1A C29G: at most 0.026.
For the variant C29U G65C, the nonsense suppression was at most 0.026.
The figure for A60U C64U is at most 0.026; for U4C U76C A89G it is at most 0.026.
The figure for G7A C12U C64A C75A C83A is at most 0.026.
The figure for U8A C34G is at most 0.026.
As for C3A U70A, the nonsense suppression was at most 0.026.
Take G61U C68G U70C: the nonsense suppression was at most 0.026.
Next, U4C G15A U63A G66C U71C: at most 0.026.
A30C U55G G59A: the nonsense suppression is at most 0.026.
The figure for G7A G10U G61C G73C is at most 0.026; for G6C U57G C64A C83U it is at most 0.026; for G26U A54U it is at most 0.026.
Consider C1U G10C, for which the nonsense suppression is at most 0.026.
The figure for A9C G66U is at most 0.026; for U57G G65A it is at most 0.026.
The figure for U35C C83U is at most 0.026; for A14U C27U A33C G66C C68A U76C it is at most 0.026.
The figure for G10A is at most 0.026; for C1G A9C G26C G73A it is at most 0.026; for U4G U70C it is at most 0.026.
In the case of G59U U76G G86C, the nonsense suppression is at most 0.026.
